Test results reported in the RNAGym collection of RNA variant scans (doi:10.1073/pnas.2313332121).
Variants at the background level are over-represented here.

B1: TPR 5TU (parent)
chain: GGAUCUUCUCGAUCUAACAAAAAAGACAAAUCUGCCACAAAGCUUGAGAGCAUCUUCGGAUGCAGAGGCGGCAGCCUUCGGUGGCGCGAUAGCGCCAACGUUCUCAACUAUGACACGCAAAACGCGUGCUCCGUUGAAUGGAGUUUAUCAUG

Variants of: B1
Assay: polymerase ribozyme fitness, log enrichment relative to wild type (log ratio); higher = more active; in vitro selection for triplet polymerase activity
In short: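 To select mutant libraries of each subunit of a heterodimeric triplet polymerase ribozyme, built by PCR and transcribed, each was annealed with a biotinylated primer, partner subunit and triplets, then incubated frozen at −7 °C. Extended constructs were gel-excised, captured on streptavidin beads and amplified by RT-PCR, in one round carried out in triplicate. Illumina sequencing of input and output libraries kept genotypes with ≥10 input reads and ≥1 read per output. Fitness is the base-2 logarithm of genotype enrichment relative to wild-type enrichment, from inverse-variance-weighted replicate averages.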

Variant	polymerase ribozyme fitness (log ratio)
A19U A23C A91U	≤ -4.2
A19U C87A G124A G133A	≤ -4.2
A20C A115U	-2.36
A20G A28C A30G C54U A73G C93A C95U G100U C123U U127C U144C	≤ -4.2
A20G A29C C43G C63A G86A U90G C125U	≤ -4.2
A19U G50A U55A G83A C85G	≤ -4.2
A20G C93U C108G	≤ -4.2
A19U A24U G46U A49C U82G C99A	≤ -4.2
A19U U33C C43G G81A	≤ -4.2
A19U A73U	-0.608
A20G A41G C54U U56A C93G A120G U139G	-2.99
A19U A30C A49G C54U C118A A147U U151G	≤ -4.2
A20C A89C A91C A97G C105U	≤ -4.2
A20C C36A A49U U56G A91U U146C	≤ -4.2
A20C G42C G50U G84A C99A	≤ -4.2
A20G A21U G59C C69A A98G U109A	≤ -4.2
A20G A22U C93G	-4.09
A19U A52G U53G U56A G58C G71U G80A A91C U127C U148C	≤ -4.2
A19U C43U U44A G88U A89G C96G G126A	≤ -4.2
A19U A23C C54A C76U U78G C93G A119G	≤ -4.2
A19U C32A A60G C103A C105G A142G	≤ -4.2
A20C G42U C54G C95A U102G C103A	≤ -4.2
A20C U45G C54U C76A A91U C114U	≤ -4.2
A20C C85U	-1.04

Variant	polymerase ribozyme fitness (log ratio)
A19U C85U	-0.763
A19U C85A	-1.33
A20C C103A A107G C149G	≤ -4.2
A20C A24G	-4.02
A20G A91G U146A	-3.96
A20C G50A A60G U61G C87A	≤ -4.2
A19U G81C C85U U145A	-0.303
A20G C75A G80C C93G A98U C108G G117A	≤ -4.2
A19U G70A U82A U127G	≤ -4.2
A19U C35U C51U G58A C87G	≤ -4.2
A20G A29G U44A A47U G58U G124A	≤ -4.2
A20C A22G C69G A73G U78G U102G	≤ -4.2
A20G A39G G50C C85A C93A C114G C125G	≤ -4.2
A19U C72U G88C G152U	≤ -4.2
A20C A21U U55A G59C C85A G126U	-0.602
A20C A21C G42C C51U U56A A122U G152U	≤ -4.2
A19U C32U U61A G70A C76A A89U C96G G140A U148G	≤ -4.2
A20G C54U A60U C85A	-3.42
A20C C38G U61G G62U C87G A97G A110U	≤ -4.2
A20C A37U G59C A60U G68C G86C C118U A142G	≤ -4.2
A20C A37C A40C G58C C95U	-4.12
A20C A21G G48A C54A A113C A147C	≤ -4.2
A20C C87A C116U	≤ -4.2
A20C C69A C85U C95G A107U	≤ -4.2

Variant	polymerase ribozyme fitness (log ratio)
A20C U56A A64C G65C U101G C132U G133U	≤ -4.2
A20C A30G A52U U82C A110G C131G	≤ -4.2
A20G C76A U90G A97G G136C	≤ -4.2
A19U U45G	-0.38
A20C A60G G88A A142U	≤ -4.2
A19U U33C C69U G126U	-0.898
A20C U45G C51U C54U C69A C87U C96U U127C U139A	≤ -4.2
A19U U33G A64C A107G U127G	≤ -4.2
A20C G92A U101G G124A C129U	-3.24
A19U U61A C75G C108A G140C	≤ -4.2
A20C U56A A107U	-2.71
A20G A26U U31G A40G C125G U151C G152A	≤ -4.2
A19U A89U G136U	-3.55
A20G C95A A110G	-3.46
A20C U44G U55A G74A A89C C95G U127G	≤ -4.2
A20G C51G G88A C93A U127C C131A U139G	≤ -4.2
A20G C76A C99A U109A G141U	≤ -4.2
A19U U31G C35G C75G G83C C96U C103G	≤ -4.2
A19U A29U C32G G65C A97U U101A U104G A113U C132U G136A	≤ -4.2
A20C G50A C76G G80C A91U A98G	≤ -4.2
A19U G50C C69A C85U A110C	≤ -4.2
A19U G70A A120U	≤ -4.2
A19U A23C C27G A52G C54G G94A	≤ -4.2
A20C A52U U77C C87U	≤ -4.2

Variant	polymerase ribozyme fitness (log ratio)
A20C C43G U53A G74A G84U A107U U109G A150U	≤ -4.2
A19U G42A U45A C57A C87G C131U A142C	≤ -4.2
A20G A30U C63A C87U U146C	≤ -4.2
A19U C54G A60C G65C C85A A98G G133U	≤ -4.2
A20C A39C A40G G84U G88U C93A C96A	≤ -4.2
A20C C35G G48U U77C G86U C116G U148G	≤ -4.2
A20G C87U U148A	-3.21
A19U G92U G124C U139A	≤ -4.2
A19U G50U G58C C75U C118G A120G G141A U146A	≤ -4.2
A20G C27A C38A C95A C108U A110G G143C	≤ -4.2
A20G A30G A41C C51A G143U	≤ -4.2
A20G A21C A47C G84C A97U U144A	≤ -4.2
A19U C32G C96G A122C G126C G143U	≤ -4.2
A20G A24U U111A A142U G143U	≤ -4.2
A19U G94C U145G	-0.324
A19U A40G G124A	-4.11
A19U G50A	-1.63
A19U G83U	-0.798
A20C C99G	-1.06
A20C A41G U55C A60G G83U G84C C93U	≤ -4.2
A19U A26U C38U C96U C125G	≤ -4.2
A19U U55A C72U G143U	≤ -4.2
A20G C32G U56A U78A C85A C108A	≤ -4.2
A20G C27G A29U A97G A120G U146G	-4.06

Variant	polymerase ribozyme fitness (log ratio)
A19U C87A A89C	≤ -4.2
A19U A30U C93U U101A	≤ -4.2
A20C C105G A115U G140U	≤ -4.2
A19U A22U A47C G80A G86A C87A C95U U104G A120U	≤ -4.2
A19U C54A G70A U82A U134G U139A	≤ -4.2
A19U C36A G70A C95U U148A	≤ -4.2
A19U G25C U45G G58C A89U G94U A121C G128U G140A	≤ -4.2
A20G G25A A52G G74A C75U G83A C125G G133U	≤ -4.2
A20C A39U G42A A91U G133U	≤ -4.2
A20C C85U G86U C93A A119U A121G	-1.77
A20C A22C A60C C87U G88C U102C A147U	≤ -4.2
A19U A29C U44A C72A A97U G126A A150G	≤ -4.2
A20C C63U G88C C95U	≤ -4.2
A20C G48A G50C C95U	≤ -4.2
A20C A40C G74C A107G C131A G133U U135A	≤ -4.2
A20C A21U G48A C51U U55A C85U U151G	≤ -4.2
A20C A22U A40G C93G C95U C105G	≤ -4.2
A19U C43U G50C G74A A91U U134C G140C	≤ -4.2
A19U A91C C129A	≤ -4.2
A19U A22C A40C C43G A66C C95A G141U G152A	-3.6
A20C C54U C63U G67U G84U C108G	≤ -4.2
A20G A37U U55G U78G	≤ -4.2
A19U U31C C51U	0.159
A20G A40U U77C	≤ -4.2

Variant	polymerase ribozyme fitness (log ratio)
A20C A26C A30C U44G G50A A66C	≤ -4.2
A20G A22C C93A	-3.38
A20C C54G C93U C108A	≤ -4.2
A20C G48A C76G C149G	≤ -4.2
A19U G42C G81C C87A C118U A119G G152A	≤ -4.2
A20G A26U	-2.24
A19U A26G C72G G88A	≤ -4.2
A20C A120G	-0.986
A20G C38G C69U G86U A91U C99G A137G	≤ -4.2
A20G A23C U144G	≤ -4.2
A20C U144G	0.273
A20C A47U U101A A122U	-0.358
A19U C54U G68A G84C C85G G124A	≤ -4.2
A19U C95U	-0.543
A19U U82C C103G G112U	≤ -4.2
A20C A28U A49C U61A G92A A113G C149G	≤ -4.2
A20G A40C A49C G50A G65C G68A C87U G124U	≤ -4.2
A20C A26C C35U C75U U90A G92A C118A A122C	≤ -4.2
A20C A37C G83U G84A A122C U134C G141C	≤ -4.2
A20C G100U U104G A142G	≤ -4.2
A19U A26G C75U C85U A89G C95A	≤ -4.2
A20C C57U G59C G62C G124A	-0.9
A20G A37G A106G A138C	-3.84
A20C A30C G100C U102G G143U U145G	≤ -4.2

Variant	polymerase ribozyme fitness (log ratio)
A19U C54U U134C A150C	-2.5
A19U U55G C85G C96U C116A U139A	≤ -4.2
A20G A21C U45A U78A G126A	≤ -4.2
A19U C54U C114U U144G A150C	≤ -4.2
A20C A26G C38G A52C C54A C87U C93U	≤ -4.2
A19U G48A	-1.05
A19U A26U C32A U55A	≤ -4.2
A20G A41C G46C U82C C95A C123U	≤ -4.2
A20C A89G C95U A106U C116U A138C	≤ -4.2
A20C C85A G126C U144A	-0.594
A19U A30C C95G	≤ -4.2
A19U A66U C85U A106G C116G U144A	≤ -4.2
A20C G42A U56A A73G C93G	≤ -4.2
A19U A40C C79A G83A C85G C116A	≤ -4.2
A20C A23C C27G C38U C103G U145G U146C	≤ -4.2
A20C U45A G46A A49G C72A G88C C116U G117A	≤ -4.2
A19U A106G G143C	-2.4
A19U U45G G83C U127A	≤ -4.2
A19U C96A	-0.531
A19U A22C U55G A64C A73G A91C U144A	≤ -4.2
A20C C54A C57U A66G U77G C87G C99U A106G C116A G136C	≤ -4.2
A19U A52C	-1.34
A20C C57G C105G C149A	≤ -4.2
